Consider five cell lines from the supplement of paper PMC4967469.

A lower IC50 marks a more sensitive line; fits outside the tested doses are given as limits. AUC is the area under the same curve over the 256-fold range up to the top dose, as a fraction: 1 means no effect, lower means more sensitive. For some assays here: A top dose marked as inferred comes from the curve model; the source does not state it. For some assays here: Where an entry number is given, a second screen of the drug exists; the two often differ.

What all share (experiment): Viability of human cancer cell lines after 72 h of drug (GDSC screen)
Compound in one test: Cc1ccc(Nc2cc(-c3cccc(N4C(=O)c5ccccc5C4=O)c3)ncn2)cc1NS(C)(=O)=O [KIN001-270]
The settings on record: top dose 20 µM; top dose inferred. The method, then:
(§1)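 Human cancer cell lines in 384-well plates, medium with 10% serum, drug for 72 h over a 256-fold dose range (nine 2-fold or five 4-fold steps up to the top dose). Adherent lines were fixed and stained with the nucleic acid dye Syto60, suspension lines read with resazurin; signal relative to control wells, capped at 0 and 100%. One two-parameter sigmoid per drug and line, fitted in a mixed model over all curves with the slope shared within a line.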

Compound in a further test: C/C(O)=C(\C#N)C(=O)Nc1cc(Br)ccc1Br [LFM-A13]
The settings on record: top dose 16 µM; top dose inferred. As to the method:
as §1

Compound in a further test: Nc1ccn([C@@H]2O[C@H](CO)[C@@H](O)C2(F)F)c(=O)n1 [Gemcitabine]
The settings on record: top dose 1.024 µM. The method, then: as §1

Compound in a further test: O=S(=O)(c1ccccc1)N(CC(F)(F)F)c1ccc(C(O)(C(F)(F)F)C(F)(F)F)cc1 [T0901317]
The settings on record: top dose 10.24 µM; top dose inferred. The method, then:
as §1

Compound in the next test: Cc1cn(-c2cc(NC(=O)c3ccc(C)c(Nc4nccc(-c5cccnc5)n4)c3)cc(C(F)(F)F)c2)cn1 [Nilotinib]
The settings on record: top dose 2 µM. The method, then: as §1

Compound in a further test: CC(C)c1ccccc1Cc1cc(C(=O)Nc2ccc(S(=O)(=O)c3ccccc3C(C)(C)C)cc2)c(O)c(O)c1O [TW-37]
The settings on record: top dose 5 µM. The method, then:
as §1

Compound in another test: CCNC(=O)c1noc(-c2cc(C(C)C)c(O)cc2O)c1-c1ccc(CN2CCOCC2)cc1 [AUY922]
The settings on record: top dose 0.256 µM; top dose inferred. The method, then:
as §1

Compound in another test: NC(=O)c1cccc(-c2cc(Nc3ccc(OC(F)(F)F)cc3)ncn2)c1 [GNF-2]
The settings on record: top dose 1.28 µM; top dose inferred. As to the method: as §1

Compound in the next test: S=C(NCc1ccc2c(c1)OCO2)N1CCN(c2ncnc3c2oc2ccccc23)CC1 [MP470]
The settings on record: top dose 20 µM; top dose inferred. The method, then: as §1

Compound in another test: CC(O)(CS(=O)(=O)c1ccc(F)cc1)C(=O)Nc1ccc(C#N)c(C(F)(F)F)c1 [Bicalutamide]
The settings on record: top dose inferred. The method, then:
as §1

Setting [1] is: top dose 1.024 µM, screen: GDSC drug entry 150.
The mark [2] stands for this setting: top dose 10 µM, screen: GDSC drug entry 1502.

The IC50 is the concentration that gives 50% inhibition.

Take NB1 (neuroblastoma, semi-adherent): the AUC stood at 0.901 with KIN001-270; 0.953 in the test with LFM-A13; 0.718 with Gemcitabine; 0.956 with T0901317; 0.983 with Nilotinib; 0.631 with TW-37. The AUC is 0.772 in the test with AUY922; 0.954 with GNF-2; 0.765 with MP470; 0.984 with Bicalutamide (setting [1]); 0.982 with Bicalutamide (setting [2]). Also, the IC50 is over 20000 nM with KIN001-270; over 16000 nM with LFM-A13; 284 nM with Gemcitabine; over 10200 nM in the test with T0901317; over 2000 nM in the test with Nilotinib; 749 nM with TW-37. Also, the IC50 with AUY922 was 109 nM; in the test with GNF-2 it was over 1280 nM; with MP470 it was 8040 nM; with Bicalutamide (setting [1]), over 1020 nM; with Bicalutamide (setting [2]), over 10000 nM.

HDLM-2 (Hodgkin lymphoma, suspension): the AUC with KIN001-270 worked out at 0.989; with LFM-A13, 0.971; in the test with Gemcitabine, 0.868; with T0901317 it was 0.98; with Nilotinib, 0.958; in the test with TW-37 it was 0.836. Further, the AUC stood at 0.604 with AUY922; 0.988 in the test with GNF-2; 0.958 with MP470; 0.988 with Bicalutamide (setting [1]); 0.985 in the test with Bicalutamide (setting [2]). Besides, the IC50 is over 20000 nM with KIN001-270; over 16000 nM with LFM-A13; 905 nM with Gemcitabine; over 10200 nM with T0901317; over 2000 nM with Nilotinib; 3250 nM with TW-37. The IC50 in the test with AUY922 was 30.7 nM; with GNF-2, over 1280 nM; with MP470, over 20000 nM; with Bicalutamide (setting [1]), over 1020 nM; with Bicalutamide (setting [2]), over 10000 nM.

As for no-11 (glioma, adherent), the AUC with KIN001-270 worked out at 0.967; with LFM-A13 it was 0.975; in the test with Gemcitabine, 0.728; with T0901317 it was 0.976; with Nilotinib, 0.962; with TW-37, 0.732. Also, the AUC with AUY922 was 0.637; with GNF-2, 0.983; in the test with MP470, 0.954; in the test with Bicalutamide (setting [1]) it was 0.977; in the test with Bicalutamide (setting [2]) it was 0.981. Besides, the IC50 is over 20000 nM with KIN001-270; over 16000 nM in the test with LFM-A13; 342 nM with Gemcitabine; over 10200 nM with T0901317; over 2000 nM with Nilotinib; 1730 nM with TW-37. Further, the IC50 with AUY922 is 42.3 nM; in the test with GNF-2, over 1280 nM; in the test with MP470 it was over 20000 nM; with Bicalutamide (setting [1]), over 1020 nM; in the test with Bicalutamide (setting [2]), over 10000 nM.

On to “KARPAS-620 (haematopoietic neoplasm, suspension)”, for which the AUC was found to be 0.939 with KIN001-270; 0.974 with LFM-A13; 0.735 in the test with Gemcitabine; 0.944 with T0901317; 0.987 with Nilotinib; 0.525 with TW-37. Besides, the AUC turned out to be 0.47 with AUY922; 0.991 in the test with GNF-2; 0.845 in the test with MP470; 0.986 with Bicalutamide (setting [1]); 0.988 in the test with Bicalutamide (setting [2]). In addition, the IC50 with KIN001-270 was over 20000 nM; in the test with LFM-A13, over 16000 nM; with Gemcitabine it was 265 nM; with T0901317, over 10200 nM; in the test with Nilotinib, over 2000 nM; with TW-37, 362 nM. Moreover, the IC50 in the test with AUY922 was 13.4 nM; with GNF-2 it was over 1280 nM; in the test with MP470 it was 11500 nM; in the test with Bicalutamide (setting [1]) it was over 1020 nM; with Bicalutamide (setting [2]) it was over 10000 nM.

Turning to KLE (endometrium, adherent), the AUC with KIN001-270 is 0.953; with LFM-A13, 0.962; with Gemcitabine it was 0.628; with T0901317, 0.961; in the test with Nilotinib, 0.978; with TW-37 it was 0.609. Besides, the AUC in the test with AUY922 came out at 0.794; with GNF-2, 0.962; in the test with MP470, 0.918; with Bicalutamide (setting [1]), 0.978; in the test with Bicalutamide (setting [2]) it was 0.948. Also, the IC50 was over 20000 nM with KIN001-270; over 16000 nM with LFM-A13; 176 nM with Gemcitabine; over 10200 nM with T0901317; over 2000 nM in the test with Nilotinib; 738 nM in the test with TW-37. In addition, the IC50 is 203 nM with AUY922; over 1280 nM with GNF-2; over 20000 nM with MP470; over 1020 nM with Bicalutamide (setting [1]); over 10000 nM with Bicalutamide (setting [2]).
